{
  "source": "the supplement of paper PMC8728848",
  "experiment_in_all_cases": "glycan array binding signal (z-score within array); higher = stronger binding",
  "details_in_all_cases": "glycan notation: IUPAC condensed, linker removed",
  "key": {"Gal3S(b1-4)Glc": {"biological_target": "Gal3S(b1-4)Glc", "procedure,_shortened": "(§1)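 Negative Z-scores can be read as non-binding. The Z-score is calculated within each array and then averaged across arrays of one protein sequence at different concentrations or buffers and across linkers. Arrays, 3228 in all, were curated from the Consortium for Functional Glycomics database and kept only where the protein sequence was available.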"}, "Gal3S(b1-4)Glc6S": {"biological_target": "Gal3S(b1-4)Glc6S", "procedure,_shortened": "as §1"}, "Gal3S(b1-4)GlcNAc": {"biological_target": "Gal3S(b1-4)GlcNAc", "procedure,_shortened": "as §1"}, "[1]": {"biological_target": "Gal3S(b1-4)[Fuc(a1-3)]Glc6S", "procedure,_shortened": "as §1"}, "[2]": {"biological_target": "Gal3S(b1-4)[Fuc(a1-3)]GlcNAc", "procedure,_shortened": "as §1"}, "[3]": {"biological_target": "Gal3S(b1-4)[Fuc(a1-3)]GlcNAc6S", "procedure,_shortened": "as §1"}, "Gal3S4S(b1-4)GlcNAc": {"biological_target": "Gal3S4S(b1-4)GlcNAc", "procedure,_shortened": "as §1"}, "Gal3S6S(b1-4)GlcNAc": {"biological_target": "Gal3S6S(b1-4)GlcNAc", "procedure,_shortened": "as §1"}, "Gal3S6S(b1-4)GlcNAc6S": {"biological_target": "Gal3S6S(b1-4)GlcNAc6S", "procedure,_shortened": "as §1"}, "Gal4S(b1-4)GlcNAc": {"biological_target": "Gal4S(b1-4)GlcNAc", "procedure,_shortened": "as §1"}, "Gal4S6S(b1-4)GlcNAc": {"biological_target": "Gal4S6S(b1-4)GlcNAc", "procedure,_shortened": "as §1"}, "Gal6P(b1-4)GlcNAc": {"biological_target": "Gal6P(b1-4)GlcNAc", "procedure,_shortened": "as §1"}, "Gal6S(b1-3)GlcNAc": {"biological_target": "Gal6S(b1-3)GlcNAc", "procedure,_shortened": "as §1"}, "Gal6S(b1-3)GlcNAc6S": {"biological_target": "Gal6S(b1-3)GlcNAc6S", "procedure,_shortened": "as §1"}, "Gal6S(b1-4)Glc": {"biological_target": "Gal6S(b1-4)Glc", "procedure,_shortened": "as §1"}, "Gal6S(b1-4)Glc6S": {"biological_target": "Gal6S(b1-4)Glc6S", "procedure,_shortened": "as §1"}, "Gal6S(b1-4)GlcNAc": {"biological_target": "Gal6S(b1-4)GlcNAc", "procedure,_shortened": "as §1"}, "Gal6S(b1-4)GlcNAc6S": {"biological_target": "Gal6S(b1-4)GlcNAc6S", "procedure,_shortened": "as §1"}, "GalNAc(a1-3)Gal": {"biological_target": "GalNAc(a1-3)Gal", "procedure,_shortened": "as §1"}, "GalNAc(a1-3)GalNAc": {"biological_target": "GalNAc(a1-3)GalNAc", "procedure,_shortened": "as §1"}, "[4]": {"biological_target": "GalNAc(a1-3)GalNAc(b1-3)Gal(a1-4)Gal(b1-4)Glc", "procedure,_shortened": "as §1"}, "[5]": {"biological_target": "GalNAc(a1-3)GalNAc(b1-3)Gal(a1-4)Gal(b1-4)GlcNAc", "procedure,_shortened": "as §1"}, "GalNAc(b1-3)Gal": {"biological_target": "GalNAc(b1-3)Gal", "procedure,_shortened": "as §1"}, "[6]": {"biological_target": "GalNAc(b1-3)Gal(a1-4)Gal(b1-4)GlcNAc", "procedure,_shortened": "as §1"}, "[7]": {"biological_target": "GalNAc(b1-3)Gal(a1-4)Gal(b1-4)GlcNAc(b1-3)Gal(b1-4)Glc", "procedure,_shortened": "as §1"}, "[8]": {"biological_target": "GalNAc(b1-3)Gal(a1-6)Gal(b1-4)Glc", "procedure,_shortened": "as §1"}, "GalNAc(b1-3)GalNAc": {"biological_target": "GalNAc(b1-3)GalNAc", "procedure,_shortened": "as §1"}, "GalNAc(b1-3)GlcNAc": {"biological_target": "GalNAc(b1-3)GlcNAc", "procedure,_shortened": "as §1"}, "GalNAc(b1-4)Gal(b1-4)Glc": {"biological_target": "GalNAc(b1-4)Gal(b1-4)Glc", "procedure,_shortened": "as §1"}, "GalNAc(b1-4)GlcNAc": {"biological_target": "GalNAc(b1-4)GlcNAc", "procedure,_shortened": "as §1"}},
  "note": "Some of the results follow.",
  "data": [
    {"binder": "BT3172pd (Bacteroides thetaiotaomicron) (protein) MLPLRAEHYYYKQISLKEGLPSNVRCILRDEQGFIWIGTKAGLGKFDGHQLKRYKHQANDPHSLLHNLIYQIAEDKQHNIWILTEKGIARYQQQSNNFTFPTDEEGNYITAYSFCLVPDGILFGGKDRIYKYSYKDSSLRLLQYFNANSFKITALSVWDSKTLLCCSRWTGLYLVDLQTGEHRRPPFDCGPEITSMITDSKNRIWIAPYSGGLRCYSRDGKLSASYTTHNSSLSNDIVLSLAEREEQLWIGTDGGGINILHPETGEISQLEYIPGRENYSLPANSILCLHNDYNNNVWAGSTCNGLISIREVSMKTYTDVVPGNDRGLSNGTVRSLYRQSPDSIWIGTDGGGINLFSPHTEKFTHYSSTWGDKVAFISGFTPGKLLISLFSKGVFVFNPATGEKQPFTIIDKETTTRLCNRGKSVNLYQNTPNTVLFLGDHIYQYHLKEKKFSTITEEEGKDIVGTLVPFDHQENLTYINDIKHIYELDDQTSRLKTVFECYTDTVISSVSHDEQGHFWIGSNFGLIHYDPVLKSRTLVPTNLFTEINMVLCDQKGKVWIGVDNMLFAYFIKEQKFVLFGESNGAIQNEYLPNARLVNEQGDAYIGGVKGMLRIDGQLLLNTSEMPELQLLDITINGESANHEWYNHPAKISVPWNSNISIRIMSREEDIFRQKIYRYQIEGLNNEYTESYNPELVIRSLLPGSYRIMASCTAKDGSWIPDQQVLELTVLPPWYRTHHHHHH", "values": [
      {"measurement": "glycan array binding signal (z-score)", "setting": "Gal3S(b1-4)Glc", "value": 0.074},
      {"measurement": "glycan array binding signal (z-score)", "setting": "Gal3S(b1-4)Glc6S", "value": 0.289},
      {"measurement": "glycan array binding signal (z-score)", "setting": "Gal3S(b1-4)GlcNAc", "value": 0.279},
      {"measurement": "glycan array binding signal (z-score)", "setting": "[1]", "value": 0.491},
      {"measurement": "glycan array binding signal (z-score)", "setting": "[2]", "value": -0.579},
      {"measurement": "glycan array binding signal (z-score)", "setting": "[3]", "value": -0.416},
      {"measurement": "glycan array binding signal (z-score)", "setting": "Gal3S4S(b1-4)GlcNAc", "value": -0.106},
      {"measurement": "glycan array binding signal (z-score)", "setting": "Gal3S6S(b1-4)GlcNAc", "value": -0.222},
      {"measurement": "glycan array binding signal (z-score)", "setting": "Gal3S6S(b1-4)GlcNAc6S", "value": -0.116},
      {"measurement": "glycan array binding signal (z-score)", "setting": "Gal4S(b1-4)GlcNAc", "value": -0.416},
      {"measurement": "glycan array binding signal (z-score)", "setting": "Gal4S6S(b1-4)GlcNAc", "value": 0.622},
      {"measurement": "glycan array binding signal (z-score)", "setting": "Gal6P(b1-4)GlcNAc", "value": -0.544},
      {"measurement": "glycan array binding signal (z-score)", "setting": "Gal6S(b1-3)GlcNAc", "value": 0.038},
      {"measurement": "glycan array binding signal (z-score)", "setting": "Gal6S(b1-3)GlcNAc6S", "value": -0.785},
      {"measurement": "glycan array binding signal (z-score)", "setting": "Gal6S(b1-4)Glc", "value": 0.122},
      {"measurement": "glycan array binding signal (z-score)", "setting": "Gal6S(b1-4)Glc6S", "value": -0.107},
      {"measurement": "glycan array binding signal (z-score)", "setting": "Gal6S(b1-4)GlcNAc", "value": -0.52},
      {"measurement": "glycan array binding signal (z-score)", "setting": "Gal6S(b1-4)GlcNAc6S", "value": -0.124},
      {"measurement": "glycan array binding signal (z-score)", "setting": "GalNAc(a1-3)Gal", "value": -0.191},
      {"measurement": "glycan array binding signal (z-score)", "setting": "GalNAc(a1-3)GalNAc", "value": -0.288},
      {"measurement": "glycan array binding signal (z-score)", "setting": "[4]", "value": -0.399},
      {"measurement": "glycan array binding signal (z-score)", "setting": "[5]", "value": 0.046},
      {"measurement": "glycan array binding signal (z-score)", "setting": "GalNAc(b1-3)Gal", "value": 0},
      {"measurement": "glycan array binding signal (z-score)", "setting": "[6]", "value": -0.496},
      {"measurement": "glycan array binding signal (z-score)", "setting": "[7]", "value": -0.247},
      {"measurement": "glycan array binding signal (z-score)", "setting": "[8]", "value": 0.074},
      {"measurement": "glycan array binding signal (z-score)", "setting": "GalNAc(b1-3)GalNAc", "value": -0.363},
      {"measurement": "glycan array binding signal (z-score)", "setting": "GalNAc(b1-3)GlcNAc", "value": -0.246},
      {"measurement": "glycan array binding signal (z-score)", "setting": "GalNAc(b1-4)Gal(b1-4)Glc", "value": 0.978},
      {"measurement": "glycan array binding signal (z-score)", "setting": "GalNAc(b1-4)GlcNAc", "value": 0.227}
    ]}
  ]
}
